Screen size: about 350,000 compounds; about 31,000 (8.9%) were called active. Inconclusive means that the source gave no clear call. Such entries were picked first, then a sample of the others. The call rests on the fitted dose curve; in most records, active means well fitted inhibition curve with a large enough effect; inconclusive means small, poorly fitted or top-dose-only effect; inactive means no such curve, though single readings can be large or run the other way. Potencies of inconclusive entries are doubtful fits and often do not repeat.
Each molecule was assayed against Histone-lysine N-methyltransferase EHMT2 (Homo sapiens) (UniProt Q96KQ7) (assay: qHTS Assay for Inhibitors of Histone Lysine Methyltransferase G9a). Conditions: G9a H3K9 monomethylation, AlphaScreen, 2 h; activity, negative = inhibition: at 59 µM (top of the series) unless noted.
Chain of UniProt Q96KQ7 (Q96KQ7 whole entry, looked up): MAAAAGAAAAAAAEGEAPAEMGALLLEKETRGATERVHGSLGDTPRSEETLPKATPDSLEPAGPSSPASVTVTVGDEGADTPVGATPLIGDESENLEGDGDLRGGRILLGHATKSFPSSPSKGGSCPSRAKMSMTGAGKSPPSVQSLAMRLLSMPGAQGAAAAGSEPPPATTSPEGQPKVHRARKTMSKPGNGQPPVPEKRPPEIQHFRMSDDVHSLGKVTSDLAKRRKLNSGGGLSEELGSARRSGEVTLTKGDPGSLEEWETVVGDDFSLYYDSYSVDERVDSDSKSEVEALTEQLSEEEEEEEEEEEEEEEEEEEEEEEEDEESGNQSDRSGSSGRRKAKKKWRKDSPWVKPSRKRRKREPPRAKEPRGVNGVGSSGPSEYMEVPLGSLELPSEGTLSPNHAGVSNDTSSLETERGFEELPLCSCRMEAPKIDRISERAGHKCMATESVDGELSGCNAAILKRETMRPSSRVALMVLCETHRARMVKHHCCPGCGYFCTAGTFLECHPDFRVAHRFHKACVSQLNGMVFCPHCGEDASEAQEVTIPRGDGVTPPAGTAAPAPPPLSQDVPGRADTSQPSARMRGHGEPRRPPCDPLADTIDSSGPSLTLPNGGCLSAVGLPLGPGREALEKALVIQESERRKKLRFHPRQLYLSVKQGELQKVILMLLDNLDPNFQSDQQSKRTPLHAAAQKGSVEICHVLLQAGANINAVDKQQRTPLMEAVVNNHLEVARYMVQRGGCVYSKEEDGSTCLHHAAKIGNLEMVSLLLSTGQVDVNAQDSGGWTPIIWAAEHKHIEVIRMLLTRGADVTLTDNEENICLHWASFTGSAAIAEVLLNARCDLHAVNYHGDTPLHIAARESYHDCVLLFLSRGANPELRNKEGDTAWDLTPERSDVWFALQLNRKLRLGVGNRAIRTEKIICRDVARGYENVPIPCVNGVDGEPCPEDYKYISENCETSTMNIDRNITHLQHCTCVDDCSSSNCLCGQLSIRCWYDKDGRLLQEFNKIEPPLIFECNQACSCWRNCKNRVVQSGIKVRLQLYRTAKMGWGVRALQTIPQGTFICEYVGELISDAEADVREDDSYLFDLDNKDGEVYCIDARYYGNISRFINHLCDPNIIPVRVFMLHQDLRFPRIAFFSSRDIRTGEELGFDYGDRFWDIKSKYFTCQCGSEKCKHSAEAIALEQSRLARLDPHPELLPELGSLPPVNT
In short: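 G9a (20 nM) preincubated 15 min RT with compounds, then 500 nM biotinylated H3K9 peptide and 20 uM SAM added; 2 h RT reaction. Monomethyl-H3K9 product detected by AlphaScreen with anti-H3K9me1 antibody, streptavidin donor and anti-rabbit IgG acceptor beads.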
Further: nearly all actives have a fitted effect of over 75% in size.
On the % scale 0 is the no-effect control and ±100 the full control effect; potency means the concentration at half of the fitted maximal effect; tags describe the fitted curve by direction and shape.

| Structure (SMILES) | activity, negative = inhibition | Potency |
| --- | --- | --- |
| Cn1c(=O)c2c(-c3ccccc3)n3c(c2n(C)c1=O)C(c1ccc([N+](=O)[O-])cc1)Nc1ccccc1-3 (configuration not stated) | inactive: -24.8% |  |
| CCOc1ccc(C2c3c(oc4cc(C)c(C)cc4c3=O)C(=O)N2CCCN(C)C)cc1OC (configuration not stated) |  | active: 50.1 µM |
| CN(C)C(CNC(=O)c1cc(S(=O)(=O)N(C)c2ccccc2)ccc1Cl)c1cccs1 (configuration not stated) |  | inconclusive: 44.7 µM [inhibitor, partial curve] |
| CCCn1c(C)cc(C(=O)COc2ccc(C)nc2[N+](=O)[O-])c1C |  | inconclusive: 89.1 µM [inhibitor, single point] |
| CC(=O)Nc1nc(COc2ccccc2)cs1 | inactive: 0.338% |  |
| O=[N+]([O-])c1ccc(S(=O)(=O)N2CCN(C3CCN(Cc4ccccc4)CC3)CC2)cc1 |  | active: 31.6 µM |
| Cc1ccc(C(C)C)c(OCC(=O)Nc2ccc3c(c2)nc(CCNC(=O)c2ccco2)n3C)c1 |  | inconclusive: 25.1 µM [inhibitor, partial curve, poor fit] |
| CCn1c(SCC(=O)NNC(=O)c2ccc(OC)cc2)nnc1C(C)C | inactive: 8.24% |  |
| COCCNC(=S)N/N=C(\C)CCc1ccc2c(c1)OCO2 |  | active: 50.1 µM |
| COc1ccc(NC(=O)c2cccc3c(=O)c4c([nH]c23)CCCC4)cc1 | inactive: -24.6% |  |
| C=CCn1c(SCC(=O)Nc2ccc3c(c2)OCCO3)nc2cc(C(=O)O)ccc2c1=O |  | inconclusive: 1 µM [inhibitor, full curve, poor fit] |
| COc1ccc(OC)c(C2CC(=O)N3CN(c4cccc(Cl)c4)CSC3=C2C#N)c1 (configuration not stated) |  | active: 7.94 µM |
| COc1ccc(-n2cc(-c3ccccc3)[nH]c2=S)c(OC)c1 |  | inconclusive: 3.55 µM [inhibitor, single point] |
| Cc1cccc(CN2CCN(Cc3ccco3)CC2)c1 |  | active: 10 µM |
| CS(=O)(=O)c1oc(-c2ccc(F)cc2)nc1S(=O)(=O)c1ccc(Cl)cc1 |  | inconclusive: 3.98 µM [inhibitor, partial curve, poor fit] |
| C=C(C)c1cccc(C(C)(C)NC(=O)N2CCN(CC(N)=O)CC2)c1 |  | inconclusive: 3.16 µM [inhibitor, single point] |
| CCc1cc(-c2n[nH]c(=S)n2CC)cs1 |  | inconclusive: 3.55 µM [inhibitor, full curve, poor fit] |
| Oc1ccc(C2Oc3cc(O)cc(O)c3CC2O)cc1 (configuration not stated) | inactive: -19.8% [at 2.33 µM] |  |
| O=C(CSc1nccc(=O)[nH]1)c1ccccc1Br |  | active: 7.94 µM |
| COc1ccc(N2C(S)=C(C#N)C(=O)NC2c2ccc(OC)c(OC)c2)cc1 (configuration not stated) |  | inconclusive: 50.1 µM [inhibitor, partial curve] |
| CC(=O)C1=C(O)C(=O)N(c2ccc(O)cc2)C1c1cccc(F)c1 (configuration not stated) | inactive: -20.2% [at 102 µM] |  |
| CC(C)(C)N(Cc1ccccc1)C(=O)COC(=O)CSc1ccc([N+](=O)[O-])cc1 |  | active: 39.8 µM |
| CCn1c(Cc2ccccc2)nnc1SCc1nc2ccccc2c(=O)[nH]1 |  | inconclusive: 56.2 µM [inhibitor, partial curve, poor fit] |
| COCCNC(=S)NC(=O)c1ccc(C(C)(C)C)cc1 |  | inconclusive: 44.7 µM [inhibitor, partial curve, poor fit] |

| Structure (SMILES) | activity, negative = inhibition | Potency |
| --- | --- | --- |
| O=C(CSc1ccc2nnc(-c3cccnc3)n2n1)Nc1ccccc1 |  | active: 50.1 µM |
| O=c1cc(C(F)(F)F)nc(-n2[nH]c3c(c2=O)CCCC3)[nH]1 |  | inconclusive: 0.708 µM [inhibitor, partial curve, poor fit] |
| CCc1ccc(NCc2cc3ccc(OC)cc3n(CC(=O)Nc3ccc(C(C)C)cc3)c2=O)cc1 | inactive: -28.8% |  |
| COc1ccc(C(C)(C)C)cc1NC(=O)Nc1ccc2c(c1)OCO2 |  | inconclusive: 39.8 µM [inhibitor, single point] |
| Cc1ccc(-n2ncc3c2CC(C)(C)CC3NC(=O)c2c(C)noc2C)cc1 (configuration not stated) | inactive: 17.7% [at 0.501 µM] |  |
| COc1ccccc1N(CC(O)COc1ccccc1)S(=O)(=O)c1ccccc1 (configuration not stated) |  | inconclusive: 25.1 µM [inhibitor, single point] |
| C=CCSC1=C(C#N)C(c2cccc(OC)c2)CC(=O)N1 (configuration not stated) |  | active: 44.7 µM |
| Cc1nn(C)cc1CN1CCCC(C(=O)c2ccc(-c3ccccc3)c(F)c2)C1 (configuration not stated) |  | inconclusive: 10 µM [inhibitor, partial curve, poor fit] |
| O=C(CNS(=O)(=O)c1ccccc1)OCC(=O)c1ccc([N+](=O)[O-])cc1 |  | active: 7.08 µM |
| COC(=O)C1=C(C)Nc2nnnn2C1c1cccs1 (configuration not stated) | inactive: 8.87% |  |
| O=C1NC(=S)N(C(=O)c2ccc(F)cc2)/C1=C/c1cccnc1 |  | inconclusive: 17.8 µM [inhibitor, partial curve] |
| COc1ccc(NC(=O)c2cccc(N3C(=O)c4ccc(C(=O)Nc5ccc(OC)c(O)c5)cc4C3=O)c2)cc1O | inactive: 15.5% [at 102 µM] |  |
| CC/C(=N/NS(=O)(=O)c1ccc(Cl)cc1)c1ccc(O)cc1 |  | inconclusive: 39.8 µM [inhibitor, single point] |
| Cc1ccc(Nc2c(-c3ccsc3)nc3cccc(C)n23)cc1 |  | inconclusive: 28.2 µM [inhibitor, single point] |
| CC(=O)Nc1ccc(/C(C)=N/NC(=O)c2ccncc2)cc1 |  | inconclusive: 35.5 µM [inhibitor, partial curve] |
| COc1ccc(Cn2nnnc2CN(Cc2cc3ccc(C)cc3[nH]c2=O)C2CCCC2)cc1 |  | active: 35.5 µM |
| CCOc1ccccc1N1CCN(S(=O)(=O)CC)CC1 |  | active: 39.8 µM |
| Cc1ccc(NC(=O)Cn2nnc(-c3nc(-c4ccncc4)no3)c2N)c(C)c1 | inactive: -6.42% |  |
| COCc1n[nH]c(=S)n1-c1ccccc1 |  | active: 39.8 µM |
| O=C1CCCC(=O)N1c1ccc(NCCOCCO)c([N+](=O)[O-])c1 |  | inconclusive: 56.2 µM [inhibitor, partial curve, poor fit] |
| CCOc1ccc2nc(Nc3nc4ccc(NC(C)=O)cc4s3)sc2c1 | inactive: -13.6% |  |
| Cc1cc(C)nc(-n2nc(C)c3c(=O)[nH]c(C(F)(F)F)nc32)n1 | inactive: -41.5% |  |
| Cc1cc(N/N=C/c2ccccc2F)nc(NCc2ccccc2)n1 | inconclusive: -72.2% [inhibitor] [at 12.7 µM] |  |

From PubChem BioAssay AID504332 (National Center for Advancing Translational Sciences (NCATS), 2011)
